Data on 1 compound can be found in patent US5936101A, “Process for the preparation of 1,2-dioxetane compounds and novel sulfur-substituted 1,2-dioxetane compounds as intermediates” (Lumigen, Inc., priority 1997, dated 1999).

Molecules are shown by their SMILES.

The nature of this test: Chemiluminescence on heating. The procedure: (b) Synthesis of 4-(p-Fluorophenylthio)-4-(3-pivaloyloxyphenyl)spiro[1,2-dioxetane-3,2'tricyclo[3.3.1.1^3,7 ]decane] (4). A small photooxygenation apparatus was charged with 54 mg (0.12 mmol) of the vinyl sulfide, 150 mg of polymer-bound Rose Bengal, and 25 mL of CH2 Cl2 dried over MgSO4. The resulting solution was then cooled to -78° C. with oxygen bubbling through it. After several minutes, the reaction mixture was irradiated with a 1000 W sodium lamp for 3.5 hours.
4-(3-t-Butyldimethylsilyloxyphenyl)-4-methoxyspiro[1,2-dioxetane-3,2'-tricyclo-[3.3.1.1^3,7 ]decane]. […] A 152 mg portion (1 mmol) of t-butyldimethylsilyl chloride was added to a solution of imidazole (69 mg, 1 mmol) in 2 mL of CH2 Cl2 causing formation of a white precipitate. The mixture was filtered and the supernatant transferred into a solution containing 285 mg (0.94 mmol) of dioxetane 6 in 1 mL of CH2 Cl2. After standing for 1 h, the solution was filtered, washed with 2×1 mL of water, dried and evaporated.
4-(3-t-Butyldiphenylsilyloxyphenyl)-4-methoxyspiro[1,2-dioxetane-3,2'-tricyclo-[3.3.1.1^3,7 ]decane]. […] A.950 mg portion (3.45 mmol) of t-butyldiphenylsilyl chloride was added to a solution of imidazole (236 mg, 3.47 mmol) in 25 mL of CH2 Cl2 causing formation of a white precipitate. The mixture was filtered and 0.99 g (3.3 mmol) of dioxetane 6 was added to the supernatant. […]

In the case of `CC(C)(C)C(=O)Oc1cccc(C2(Sc3ccc(F)cc3)OOC23C2CC4CC(C2)CC3C4)c1` (stereo not shown) [Dioxetane 4, 4-(p-Fluorophenylthio)-4-(3-pivaloyloxyphenyl)spiro[1,2-dioxetane-3,2'tricyclo-[3.3.1.1^3,7]decane]], the chemiluminescence on heating entry is listed as “emitted light when a sample was heated on a TLC plate”.
